From PubChem BioAssay AID1963576 (National Center for Advancing Translational Sciences (NCATS), 2024) come the findings set out here.

The campaign covered roughly 46,000 compounds. About 60 (0.1%) were called active. Roughly 3% stayed inconclusive and do not appear here. The call rests on the fitted dose curve; in most records, active means well fitted inhibition curve with a large enough effect; inconclusive means small, poorly fitted or top-dose-only effect; inactive means no such curve, though single readings can be large or run the other way. Some of the results follow.

A short description of this assay: Primary qHTS assay for Inhibitors of ovarian cancer metastasis using an organotypic tumor microenvironment (TME) model. Further: nearly all actives have a fitted effect of over 65% in size.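 On activity change, negative = inhibition: plate controls were DMSO wells for no effect and tomatine positive control wells for full effect.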 To be noted: SKOV3ip1-GFP adhesion/invasion on 3D omental model, fluorescence; series mostly up to 45.8 µM; activity change, negative = inhibition: at the top concentration. The method in brief:
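qHTS, 4-pt dose (0.36-46 umol/L); SKOV3ip1-GFP, 1,200 cells/well, no FBS; primary omental fibroblast/mesothelial co-culture 48 h pre-grown; 2 h RT + 16 h 37 C; PBS wash, 4% PFA; GFP count 488/509 nm.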
(Quantitative high-throughput screening tests each substance at several concentrations.)
Consider `CN(C)c1ccc(C(=O)NCc2ccc3c(c2)CCN3C(=O)c2ccccc2)cc1`, for which the “activity change, negative = inhibition” value was inactive: -8.98%.

With `CC(C)CCNC(=O)CSc1nc2ccccc2nc1Cc1ccc(Cl)cc1`, the “activity change, negative = inhibition” value was inactive: 8.87%. On the same count and under the same terms, then `CSc1ccc(CNC(=O)Cn2ccc3cc(S(=O)(=O)N4CCCC4)ccc32)cc1`, with inactive: -22.1%.

On to `COc1ccccc1CNC(=O)CS(=O)(=O)Cc1nc(-c2ccccc2C)oc1C`, for which the call was inactive. Still for that read-out and setting: then `COc1ccc(C2C(=O)N(C3CCCCC3)CC(=O)N2C2CCCCC2)cc1` (stereo not drawn), with “inactive”. On to `Cc1cc(C)c(NC(=O)CN2C(=O)CCSc3ccc(S(=O)(=O)N4CCCC4)cc32)c(C)c1`, for which the “activity change, negative = inhibition” value is inactive: 7.3%. Take `COCCn1c(C)cc(O)c(C(c2ccc(Cl)cc2)N2CCCCC2)c1=O` (stereo not drawn): the “activity change, negative = inhibition” value was inactive: -0.949%. In the case of `COc1cccc(CNC(=O)CN2C(=O)CSc3ccc(S(=O)(=O)N4CCCC4)cc32)c1`, the call was inactive. Consider `CCN(c1ncnc2c1cnn2-c1cccc(Cl)c1)C1CCCCC1`, for which the “activity change, negative = inhibition” value is inactive: 3.29%. With `Cc1ccc(-c2cc(C(F)(F)F)c(C#N)c(SCC(=O)Nc3ccccc3F)n2)cc1`, the “activity change, negative = inhibition” value is inactive: 2.02%. For the compound `COc1cc(Cl)c(NS(=O)(=O)c2ccc(-c3coc(C)n3)cc2)c(OC)c1`, the result was inactive. For `Cc1cccc(N2CCN(C(=O)c3nn(C)c4c3CS(=O)(=O)c3ccccc3-4)CC2C)c1` (stereo not drawn), the “activity change, negative = inhibition” value was inactive: 11.8%. With `Cc1ccc(-n2c(=O)c3ccccc3n(CC(=O)Nc3cccc(C(F)(F)F)c3)c2=O)cc1`, the “activity change, negative = inhibition” value is inactive: -7.77%. Same read-out and setting: the value for `O=C(Nc1ccc2nc(SCC(=O)N3CCOCC3)sc2c1)c1ccc(Cl)cc1` was inactive: 4.15%; that for `O=C(c1ccccc1)N1CCCCC1CCN1CCCCC1` (stereo not drawn) was inactive: 21.8%.

As for `CCN(Cc1ccccc1)C(=O)C(CC(C)C)NS(=O)(=O)c1ccc2c(c1)CCN2C(C)=O` (stereo not drawn), the “activity change, negative = inhibition” value is inactive: 1.88%.

`O=C(CN1C(=O)CC(c2ccc(F)cc2)=Nc2ccccc21)NCc1ccccc1Cl`: the “activity change, negative = inhibition” value was inactive: -13%.

Turning to `CN(C1CCCCC1)S(=O)(=O)c1ccc2c(c1)c(=O)c(C(=O)NCc1ccc(Cl)cc1)cn2C`, the “activity change, negative = inhibition” value was inactive: -6.93%. With `Cc1ccc(C)c(Nc2nn3c(=O)c4ccc(C(=O)NCc5cccs5)cc4nc3s2)c1`, the “activity change, negative = inhibition” value was inactive: -9.2%.

For `COc1cccc(N2CCN(c3ncnc4onc(-c5ccc(Cl)cc5)c34)CC2)c1`, the “activity change, negative = inhibition” value was inactive: -7.9%.

Turning to `N#C/C(=C\c1ccc(Cl)cc1)c1nc(-c2cc3c(ccc4ccccc43)oc2=O)cs1`, the “activity change, negative = inhibition” value was inactive: 3.36%. Turning to `O=C(Cn1c(=O)n(-c2ccccc2)c(=O)c2sc3ccccc3c21)NC1CCCC1`, the compound was called inactive. Still for that read-out and setting: the value for `COc1ccc(NC(=O)NC(C)c2c(-n3cccc3)sc3c2CCN(C)C3)c(OC)c1` (stereo not drawn) was “inactive”. For the compound `CCOc1ccc(NC(=O)CN(C)S(=O)(=O)c2cnc[nH]2)cc1`, the “activity change, negative = inhibition” value is inactive: 0.444%.

For `O=C(CSc1nnc2[nH]c(=O)cc(-c3ccccc3)n12)Nc1cc(C(F)(F)F)ccc1Cl`, the “activity change, negative = inhibition” value was inactive: -1.63%. Turning to `Nc1c(C(=O)Nc2cccc(C(F)(F)F)c2)c2ccccn2c1C(=O)c1ccccc1`, the call was inactive. Regarding `Cc1ccc2c(c1)N(C(=O)Nc1cccc3c1CCCC3)CC(C)O2` (stereo not drawn), the “activity change, negative = inhibition” value was inactive: 33.6%. Still for that read-out and setting: then `Brc1ccc2nc(SCCOc3ccccc3)[nH]c2c1`, with inactive: 8.48%; and `Cc1ccc2oc(-c3cc(NC(=O)/C=C/c4ccco4)ccc3Cl)nc2c1`, with inactive: -3.18%; and `COc1cc2c(cc1OC)C(COc1ccc3c(C)cc(=O)oc3c1)N(C(=O)CC(C)C)CC2` (stereo not drawn), with inactive: -0.911%.

As to `CC(=O)Nc1nonc1-c1nc2ccccc2n1Cc1ccccc1Br`, the “activity change, negative = inhibition” value is inactive: -3.1%. Same read-out and setting: the value for `COc1ccccc1NC(=O)c1cc(S(=O)(=O)NCCC2=CCCCC2)ccc1F` was inactive: 10.7%. Still for that read-out and setting: the value for `CCOc1ccc(NC(=O)c2c(NC(=O)c3cccs3)sc3c2CCC(C(C)(C)C)C3)cc1` (stereo not drawn) was inactive: -0.735%; that for `CCn1c(=O)cc(SCC(=O)N2CCN(c3ccccc3F)CC2)c2ccccc21` was inactive: 1.36%; that for `O=C(NCc1cccc(Cl)c1)C1CCCN(c2ncnc3onc(-c4ccc(F)cc4)c23)C1` (stereo not drawn) was inactive: 3.48%. Same read-out and setting: then `CN1CCN(C(CNC(=O)c2ccccc2)c2ccc3c(c2)OCO3)CC1` (stereo not drawn), with inactive: 1.1%; and `Cc1cccc(Cn2nnc3c(=O)[nH]c(C4CCN(C(=O)c5ccc(F)cc5)CC4)nc32)c1`, with inactive: -11.9%.

Consider `CCOC(=O)c1noc2nc(C)n(Cc3ccc([N+](=O)[O-])cc3)c(=O)c12`, for which the “activity change, negative = inhibition” value was inactive: -2.77%. On the same count and under the same terms, the value for `Cc1ccccc1CN1CCCN(CC(=O)Nc2ccc3c(c2)OCCO3)S1(=O)=O` was inactive: 3.29%. As for `COc1ccc(NC(=O)CCc2c(C)nc3c(-c4ccc(F)cc4)c(C)nn3c2C)c(OC)c1`, the compound was classed as inactive. Consider `COC(=O)c1cc(NC(=O)c2ccc(-c3ccc(Cl)cc3Cl)o2)cc(C(=O)OC)c1`, for which the “activity change, negative = inhibition” value is inactive: 0.209%.

For `O=C(Nc1ccc(C(F)(F)F)cc1)N1CCC(N2CCCCC2)CC1`, the result was inactive. The same measure, in the same setting: the value for `CCc1ccc(NC(=O)N2CCN(C(=O)c3nsc4ccccc34)CC2)cc1` was “inactive”; that for `CNC(=O)C1CCN(c2nc3ccccc3nc2C(F)(F)F)CC1` was “inactive”; that for `COc1cccc(CNC(=O)Cn2c(C)c3cnn(-c4ccccc4)c(=O)c3c2C)c1` was “inactive”.

For the compound `CCOc1ccc(OCC)c(Nc2nc3ccc(Cl)cc3n3cnnc23)c1`, the result was inactive.

`CC(C)CN(CCNC(=O)c1cc(-c2ccc(Cl)s2)nc2ccccc12)CC(C)C`: the outcome was inactive. Same read-out and setting: the value for `CCCN(C(=O)Cn1cc(S(=O)(=O)N2CCN(c3ccccc3F)CC2)c2ccccc2c1=O)c1cccc(C)c1` was “inactive”.
